Results reported in PMC4336329 (PLoS ONE, 2015).
About 2,200 (0.71%) of roughly 310,000 compounds showed an effect of 50% or more. Effects have a minus sign here. The list shows a part of the results.

Biological target: human ether-à-go-go-related gene (hERG) potassium channel (human, UniProt Q12809)
Test: primary screen, population patch clamp on CHO cells stably expressing hERG

Chain of human ether-à-go-go-related gene (hERG) potassium channel (Q12809 whole entry, looked up): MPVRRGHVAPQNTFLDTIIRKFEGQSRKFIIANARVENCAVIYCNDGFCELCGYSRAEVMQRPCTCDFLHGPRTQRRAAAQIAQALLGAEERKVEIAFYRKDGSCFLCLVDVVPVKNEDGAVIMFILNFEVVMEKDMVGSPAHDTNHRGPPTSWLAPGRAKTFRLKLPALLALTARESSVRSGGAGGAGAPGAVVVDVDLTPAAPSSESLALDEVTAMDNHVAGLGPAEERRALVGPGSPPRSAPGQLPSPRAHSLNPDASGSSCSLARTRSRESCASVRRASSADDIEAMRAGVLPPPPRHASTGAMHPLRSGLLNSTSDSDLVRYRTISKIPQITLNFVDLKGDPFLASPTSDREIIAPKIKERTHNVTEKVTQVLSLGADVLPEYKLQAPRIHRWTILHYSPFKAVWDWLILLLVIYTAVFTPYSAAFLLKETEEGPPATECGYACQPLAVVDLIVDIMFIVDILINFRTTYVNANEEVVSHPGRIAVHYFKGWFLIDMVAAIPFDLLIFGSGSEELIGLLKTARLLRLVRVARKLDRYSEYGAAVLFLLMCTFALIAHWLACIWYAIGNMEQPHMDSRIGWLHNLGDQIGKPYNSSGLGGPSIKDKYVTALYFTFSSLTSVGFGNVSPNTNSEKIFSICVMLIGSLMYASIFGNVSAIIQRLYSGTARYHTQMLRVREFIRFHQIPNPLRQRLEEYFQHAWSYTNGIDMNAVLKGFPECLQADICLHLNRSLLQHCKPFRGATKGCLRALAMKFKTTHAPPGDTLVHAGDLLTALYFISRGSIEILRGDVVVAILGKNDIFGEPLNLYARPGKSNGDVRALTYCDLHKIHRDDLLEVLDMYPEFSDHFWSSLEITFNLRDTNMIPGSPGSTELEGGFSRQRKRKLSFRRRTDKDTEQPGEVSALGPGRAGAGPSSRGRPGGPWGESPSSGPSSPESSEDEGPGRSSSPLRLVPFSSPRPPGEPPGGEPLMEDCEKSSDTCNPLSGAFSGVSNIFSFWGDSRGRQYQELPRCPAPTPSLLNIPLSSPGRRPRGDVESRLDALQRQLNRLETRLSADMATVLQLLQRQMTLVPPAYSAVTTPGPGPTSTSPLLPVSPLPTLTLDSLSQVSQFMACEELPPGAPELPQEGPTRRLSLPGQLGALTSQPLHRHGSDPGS

Structure (SMILES) | hERG current change (%, negative = inhibition) at 1uM [%]
O=c1oc2ccc(C#CC3(O)CCCCC3)cc2cc1-n1cc(C2(O)CCCCC2)nn1 | 21.5
COC(C(=O)Nc1ccc(C(N)=O)cc1)c1ccccc1 (stereo not shown) | 16.9
Cc1c(C(=O)O)c(-c2ccccc2)nn1-c1ccccc1 | 10.8
O=c1c2sc(-c3ccccc3)cc2nc2n1CCCCC2 | 8.88
C[N+](C)(C)CCOC(N)=O.[Cl-] | 16.2
O=C(O)CCC(=O)Nc1ccc(-c2nnc(-c3ccco3)o2)cc1 | 14.2
Cc1ccc2nsnc2c1NC(=S)NC(=O)c1ccco1 | 7.33
CC(=O)c1cccc(NC(=O)C(C)OC(=O)c2cccc(-n3cnnn3)c2)c1 (stereo not shown) | -11
O=[N+]([O-])c1ccc(N2CCOCC2)cc1SCc1ccco1 | -4.94
CC(/C=C/c1ccccc1)=N\Nc1nc(C)cc(C)n1 | 3.96
CC(C)[C@H](NC(=O)N1CC(=O)Nc2ccccc21)C(=O)N1CCC(C(=O)O)CC1 | 13.7
O=Cc1c(-c2ccccc2)cc2oc3ccccc3cc1-2 | 17.7
COc1ccc(NC(=O)NCCCCc2ccccc2)c(OC)c1 | 18.3
CNC(=S)/N=C/NOCc1ccc(Cl)cc1Cl | 6.22
Cc1scc(C(=O)NCc2ccco2)c1-c1ccccc1 | 6.99
Cc1cc(NC(=O)CCC(=O)N(CC(=O)NCC2CCCO2)c2ccccc2)no1 (stereo not shown) | 22.4
O=C(NC(=S)NNC(=O)c1ccccc1O)c1ccccc1 | 19
Cc1nc2ccccn2c1C(=O)/C=C/c1cccc([N+](=O)[O-])c1 | -8.89
O=C(COC(=O)c1ccc[nH]c1=O)NC1CCCCCCC1 | 13
CCOC(=O)NC(NC(=S)Nc1ccccc1[N+](=O)[O-])C(Cl)(Cl)Cl (stereo not shown) | 5.35

Structure (SMILES) | hERG current change (%, negative = inhibition) at 1uM [%]
CCOC(=O)CN1C(=O)N[C@@H](c2cccc(C(F)(F)F)c2)C(C(C)=O)=C1C | 14.3
O=C(/C=C/c1c(F)cccc1Cl)Nc1ncccn1 | 13.3
O=S(=O)(O)c1nc2ccccc2[nH]1 | 8.27
COc1ccccc1N1C(=O)C(Cl)=C(N2CCCC2)C1=O | 6.4
O=C(Cn1cnc2c(NC(=O)OCc3ccccc3)ncnc21)NCc1ccccn1 | 0.393
O=C(NCC(=O)N1CCCC(C(F)(F)F)C1)c1ccc2ccccc2c1 (stereo not shown) | 0.745
O=C1C2C3C=CC(C3)C2C(=O)N1c1ccc(S(=O)(=O)Nc2nccs2)cc1 (stereo not shown) | 17.3
COc1cc(/C=N/N=C(\N)c2nonc2N)cc(OC)c1OC | 4.18
O=C(Cc1c(C(=O)O)[nH]c2ccccc12)NCCN1CCN(c2ccccc2F)CC1 | -1.98
NS(=O)(=O)c1ccc2nc(NC(=O)Nc3ccc(F)cc3)sc2c1 | 1.36
O=C(c1ccc(C(F)(F)F)cc1)N1CCN(S(=O)(=O)c2ccc3c(c2)OCCCO3)CC1 | 12
COc1cccc(NC(=O)CC2COc3ccccc3O2)c1 (stereo not shown) | 15.6
Cc1ccc(S(=O)(=O)c2nc(NN(C)C)sc2Cl)cc1 | 8.76
COc1ccc(Cl)cc1NC(=S)Nc1ccccc1F | 13.9
CCc1ccc(C(=O)NCc2ccc(Cl)cc2Cl)cc1 | 5.29
Cc1ccc(NC(=O)Cc2c[nH]c3ccccc23)cc1S(=O)(=O)N1CCCCCC1 | 18.4
CN(CC(=O)Nc1cccc(F)c1)C(=O)C1(c2ccccc2)CC1 | 23.4
Cc1ccc(S(=O)(=O)NCC(=O)NCC(=O)N2CCC(C)CC2)cc1 | 10.8
COc1ccc(-c2cc(C(F)(F)F)n3nc(C(=O)N4CCOCC4)c(Cl)c3n2)cc1 | -0.812
CC1=CC(C)C2C(=O)N(CCC[N+](C)(C)C)C(=O)C2C1.[I-] (stereo not shown) | 12

Structure (SMILES) | hERG current change (%, negative = inhibition) at 1uM [%]
CC(C)n1ncc2c(C(=O)Nc3cccc(S(=O)(=O)N(C)C)c3)cc(C3CC3)nc21 | -0.375
COC(=O)c1ccc(CSc2nc3ccccc3c(=O)n2N)cc1 | 15.8
COc1ccc(/C=C2\N=C(C)OC2=O)cc1[N+](=O)[O-] | 11.3
O=C(Cc1ccc(Br)cc1)NC1CCCCC1 | 2.36
Cc1ccc(C)c(NC(=O)C2CCCC2)c1 | 15.5
Cc1occc1C(=O)N/N=C/c1sc(N2CCOCC2)nc1-c1ccccc1 | 7.26
O=C(c1cccs1)N1CCN(S(=O)(=O)N2CCCCC2)CC1 | 5.51
O=C(Cc1nnc(NC(=O)Nc2ccc(F)cc2)s1)NCc1ccccc1 | 12.7
CCN1CCN(c2ccc(S(=O)(=O)N3CCOCC3)cc2NC(=O)c2cc(Cl)nc3ccccc23)CC1 | 6.24
O=C(NC(=S)Nc1ccc2[nH]c(=O)[nH]c2c1)c1ccccc1Cl | 14.4
C=C(C)C(=O)N1CC2(CC(c3cccc(NC(=O)/C=C\C=C/C)c3)=NO2)C[C@H]1C(N)=O (stereo partly shown) | 7.43
CSC(=NCc1cccnc1)NS(=O)(=O)c1cccs1 | 11.7
O=C(Nc1ccc(C(=O)N2CCOCC2)cc1)c1cccs1 | 20.3
CN(c1ccc(OCC(=O)OCC(=O)Nc2ccccc2F)cc1)S(=O)(=O)c1cccs1 | 16.7
Cc1ccc(NC(=O)NCCCl)cc1S(=O)(=O)N1CCOCC1 | 9.2
C=C(C)CCOC(=O)C(CC(=O)O)NCc1ccco1 (stereo not shown) | 11.8
COc1cccc(NC(=O)CN(C)C(C)C(=O)NC(=O)NC2CCCCC2)c1 (stereo not shown) | 5.93
Cc1ccc(SCC(=O)OCC(=O)N(CC(C)C)c2c(N)n(Cc3ccccc3)c(=O)[nH]c2=O)cc1C | 17.7
